The text below walks through data of article PMC4336329 (PLoS ONE, 2015).

Hit rate of the full screen: of about 310,000 compounds, about 2,200 (0.71%) showed an effect of 50% or more. Effects have a minus sign here. Some of the results follow.

In the experiment the target is human ether-à-go-go-related gene (hERG) potassium channel (human, UniProt Q12809). Briefly: primary screen, population patch clamp on CHO cells stably expressing hERG.
human ether-à-go-go-related gene (hERG) potassium channel, sequence (Q12809 whole entry, looked up): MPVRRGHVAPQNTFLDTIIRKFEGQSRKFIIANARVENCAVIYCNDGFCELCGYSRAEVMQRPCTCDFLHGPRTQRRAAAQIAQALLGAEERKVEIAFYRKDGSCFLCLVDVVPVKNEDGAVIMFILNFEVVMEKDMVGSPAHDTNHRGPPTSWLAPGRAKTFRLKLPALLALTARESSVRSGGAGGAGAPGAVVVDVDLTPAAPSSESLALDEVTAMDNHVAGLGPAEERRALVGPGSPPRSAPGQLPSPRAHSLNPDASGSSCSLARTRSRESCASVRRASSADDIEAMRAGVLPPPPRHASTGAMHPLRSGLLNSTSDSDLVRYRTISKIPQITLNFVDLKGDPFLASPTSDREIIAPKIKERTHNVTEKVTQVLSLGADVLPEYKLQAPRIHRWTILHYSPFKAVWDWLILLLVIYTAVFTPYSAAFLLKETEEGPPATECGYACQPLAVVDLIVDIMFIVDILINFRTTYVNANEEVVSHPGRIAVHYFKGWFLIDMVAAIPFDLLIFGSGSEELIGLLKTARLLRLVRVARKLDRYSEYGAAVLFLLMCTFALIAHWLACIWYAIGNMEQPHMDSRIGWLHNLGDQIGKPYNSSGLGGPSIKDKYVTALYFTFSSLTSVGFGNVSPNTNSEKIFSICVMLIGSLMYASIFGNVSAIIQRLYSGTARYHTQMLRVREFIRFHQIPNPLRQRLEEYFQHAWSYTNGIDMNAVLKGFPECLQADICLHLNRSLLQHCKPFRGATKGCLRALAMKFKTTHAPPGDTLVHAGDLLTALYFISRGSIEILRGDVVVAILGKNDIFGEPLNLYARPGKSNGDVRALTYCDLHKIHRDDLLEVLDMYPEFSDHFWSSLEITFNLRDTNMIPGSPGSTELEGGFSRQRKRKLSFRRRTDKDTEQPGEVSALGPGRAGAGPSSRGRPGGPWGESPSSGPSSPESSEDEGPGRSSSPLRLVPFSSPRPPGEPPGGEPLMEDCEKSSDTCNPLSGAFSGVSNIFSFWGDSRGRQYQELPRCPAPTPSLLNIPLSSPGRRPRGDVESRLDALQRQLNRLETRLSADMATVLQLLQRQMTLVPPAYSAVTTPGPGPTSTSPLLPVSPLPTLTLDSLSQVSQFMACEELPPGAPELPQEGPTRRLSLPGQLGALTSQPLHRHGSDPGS
For the molecule `CCN(c1ccccc1)S(=O)(=O)c1ccc(Cl)c(C(=O)NCc2ccco2)c1`, the “hERG current change (%, negative = inhibition) at 1uM” value is -3.11%.

Take `COc1ccc(-c2cc3nc(C)c(CCC(=O)N4CCN(c5ccccn5)CC4)c(C)n3n2)c(OC)c1`: the “hERG current change (%, negative = inhibition) at 1uM” value was 4.23%.

On to `CN1CCC(OC(=O)COc2ccccc2)CC1.Cl`, for which the “hERG current change (%, negative = inhibition) at 1uM” value worked out at 17.3%.

Take `Fc1ccc(-n2c(-c3ccco3)n[nH]c2=S)cc1`: the “hERG current change (%, negative = inhibition) at 1uM” value is listed as 13.6%.

Turning to `Cc1ccc(OCC(=O)N/N=C/c2ccco2)cc1`, the “hERG current change (%, negative = inhibition) at 1uM” value is reported as 0.843%.

Regarding `CN(C)C(=O)CN1c2cccc3cccc(c23)S1(=O)=O`, the “hERG current change (%, negative = inhibition) at 1uM” value was determined as 12.7%.

For the molecule `Cc1ccccc1NC(=O)NCC1CCN(c2ccc(S(=O)(=O)N3CCOCC3)cc2)CC1`, the “hERG current change (%, negative = inhibition) at 1uM” value is listed as 8.85%.

On to `COc1ccc(CCNC2=CC(=O)N(c3ccc(F)cc3)C2=O)cc1`, for which the “hERG current change (%, negative = inhibition) at 1uM” value is 19.1%.

With `Cc1cccn2c(=O)c3cc(C(=O)NCCCOC(C)C)sc3nc12`, the “hERG current change (%, negative = inhibition) at 1uM” value is reported as 9.15%.

On to `COc1ccc(/C=C2\N=C3CCCCCN3C2=O)cc1`, for which the “hERG current change (%, negative = inhibition) at 1uM” value was 14%.

For `CCOc1ccc(C(C)=O)cc1CSc1nnc(N)s1`, the “hERG current change (%, negative = inhibition) at 1uM” value came out at 12.6%.

As to `Cc1ccc(C)c(N2CCN(CCCNC(=O)CCn3c(=O)c4cccn4c4cccnc43)CC2)c1`, the “hERG current change (%, negative = inhibition) at 1uM” value is listed as -44.1%.

Regarding `Cn1ncc(N=Cc2ccc([N+](=O)[O-])cc2)c1C(=O)N1CCOCC1`, the “hERG current change (%, negative = inhibition) at 1uM” value is on record as 3.23%.

For `Cc1[nH]nc(SCC(=O)Nc2cccc(O)c2)c1[N+](=O)[O-]`, the “hERG current change (%, negative = inhibition) at 1uM” value is 13.7%.

For the molecule `O=C(NC(=O)c1cccc(Cl)c1)OC[C@@H]1CCCN2CCCCC12` (some centres unmarked), the “hERG current change (%, negative = inhibition) at 1uM” value is -49.6%.

In the case of `C/C(=N\N(c1ccccc1)c1ccccc1)c1ccco1`, the “hERG current change (%, negative = inhibition) at 1uM” value amounted to 5.01%.

Regarding `Cn1nc(C(F)(F)F)cc1C(=O)NC1CCCCCC1`, the “hERG current change (%, negative = inhibition) at 1uM” value is recorded as 14.2%.

As for `COc1cccc(N/C=C(\C#N)c2ccc(OCCCF)cc2)c1`, the “hERG current change (%, negative = inhibition) at 1uM” value was determined as 16.1%.

On to `Cc1ccsc1CN(C)Cc1nc(C2CC2)no1`, for which the “hERG current change (%, negative = inhibition) at 1uM” value was found to be 10.8%.

With `Br.COc1ccc2c3c1O[C@H]1C[C@@H](O)C=C[C@@]31CCN(C)C2`, the “hERG current change (%, negative = inhibition) at 1uM” value was found to be 10.4%.

Turning to `Cc1cccc(OCCOc2ccc(/C=N/NC(=O)Cc3nnc(N)s3)cc2)c1`, the “hERG current change (%, negative = inhibition) at 1uM” value was 8.08%.

Take `NC1=NC(c2ccc(Cl)cc2)C(C(=O)c2ccccc2)N1` (centres unmarked): the “hERG current change (%, negative = inhibition) at 1uM” value is given as -0.776%.

Regarding `CCOc1ccc(/C=C\c2nc(O)c([N+](=O)[O-])c(=O)[nH]2)cc1OCC`, the “hERG current change (%, negative = inhibition) at 1uM” value is reported as 12.2%.

For `COCCN(C(=O)COC(=O)CCOc1cccc(C)c1)c1c(N)n(Cc2ccccc2)c(=O)[nH]c1=O`, the “hERG current change (%, negative = inhibition) at 1uM” value is 23.5%.

On to `C=CCn1c(-c2ccc(OC)c(OC)c2)cs/c1=N\c1ccccn1`, for which the “hERG current change (%, negative = inhibition) at 1uM” value is reported as 13.3%.

As for `CCn1cc(C(=O)c2ccccc2)c2ccccc21`, the “hERG current change (%, negative = inhibition) at 1uM” value amounted to 2.01%.

Regarding `COc1ccccc1C1NC(=O)NC(C)=C1C(=O)OCc1ccccc1` (centres unmarked), the “hERG current change (%, negative = inhibition) at 1uM” value came out at 9.41%.

For `CN(CCCC1CCCC1)C(=O)c1cc(COc2ccc(F)cc2F)on1`, the “hERG current change (%, negative = inhibition) at 1uM” value was 8.03%.

Turning to `O=C(OCC(=O)c1cccs1)c1cccc(C(=O)OCC(=O)c2cccs2)n1`, the “hERG current change (%, negative = inhibition) at 1uM” value was 5.8%.

Consider `Cc1ccc2c(c1)CCCN2CC(=O)Nc1cccc(S(=O)(=O)N2CCCC2)c1`, for which the “hERG current change (%, negative = inhibition) at 1uM” value is -0.928%.

For `O=C(O)CCC(=O)Nc1ccc(C(=O)N2CCCCC2)cc1`, the “hERG current change (%, negative = inhibition) at 1uM” value came to 23.9%.

For `O=[N+]([O-])c1ccc(Cl)c(-c2ccc(/C=N/n3cnnc3)o2)c1`, the “hERG current change (%, negative = inhibition) at 1uM” value worked out at 11.1%.

`Cc1ccc(-c2csc3nc(SCC(=O)N(C)C)n(Cc4ccccc4)c(=O)c23)cc1`: the “hERG current change (%, negative = inhibition) at 1uM” value amounted to 8.4%.

With `O=C(Nc1ccc(N2CCCCCC2)cc1)c1ccccc1Cl`, the “hERG current change (%, negative = inhibition) at 1uM” value is 24.5%.

With `COC(=O)CN(C#N)c1nc(NC(C)C)nc(NC(C)C)n1`, the “hERG current change (%, negative = inhibition) at 1uM” value amounted to 14.9%.

On to `CC(C)(C)Nc1nc(N)nc(Cl)n1`, for which the “hERG current change (%, negative = inhibition) at 1uM” value worked out at 9.06%.

Regarding `CCCCNC(=O)c1ccccc1SCC(=O)NC1CCCCCCC1`, the “hERG current change (%, negative = inhibition) at 1uM” value was 7.73%.

On to `CCC(Sc1nc(=O)cc(N)n1-c1ccccc1)C(=O)Nc1cc(C)on1` (centres unmarked), for which the “hERG current change (%, negative = inhibition) at 1uM” value is reported as 17.8%.

For the molecule `Cc1ccc(N(CC(=O)NC2CCCC2)C(=O)CCC(=O)Nc2ccccn2)cc1C`, the “hERG current change (%, negative = inhibition) at 1uM” value stood at 9.66%.

`CC(C)=CCN1CCN(Cc2cnc(-c3ccccc3)s2)CC1CCO` (centres unmarked): the “hERG current change (%, negative = inhibition) at 1uM” value is listed as -3.26%.

With `COc1ccc(Br)cc1/C=C/c1ccc2cccc(O)c2n1`, the “hERG current change (%, negative = inhibition) at 1uM” value is reported as 11%.

For the molecule `O=C(COC(=O)c1ccc(Cl)cc1Cl)Nc1cccc(S(=O)(=O)NC2=NCCC2)c1`, the “hERG current change (%, negative = inhibition) at 1uM” value was determined as 1.97%.

For the molecule `CN1C(=O)NC(c2cccc([N+](=O)[O-])c2)C2=C1CC(C)(C)CC2=O` (centres unmarked), the “hERG current change (%, negative = inhibition) at 1uM” value turned out to be 7.83%.

Take `O=C(CCN1C(=O)C2CCCCC2C1=O)Nc1nc2c(F)cc(F)cc2s1` (centres unmarked): the “hERG current change (%, negative = inhibition) at 1uM” value was 13.9%.
